# Results published in ChEMBL document CHEMBL1201862, “PubChem BioAssay data set” (2004).
#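 Test compounds were applied to cells in 96-well plates for 48 hours at 5 doses. GI50: concentration for 50% inhibition of growth.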 Activity calls are given as the source filed them. Cut-off read from the data, not from the text of the source: active = GI50 up to about 1.1 µM and inactive = higher.
# Test system: NCI-H322M
# Assay: inhibition of tumour cell growth, NCI panel, 48 h
row,SMILES,GI50
1,CCOc1ccccc1N1C(=O)C(=O)C(c2nc3ccccc3o2)/C(=N\N)C1=O (stereo not drawn),inactive: 50 µM
2,O=[N+]([O-])c1ccc2sc(/C=N/c3cnccn3)cc2c1,inactive: 32.1 µM
3,Cc1cc(Cl)ccc1C1OC(=O)c2c1ccc1ccccc21 (stereo not drawn),inactive: > 100 µM
4,COC1=C2CC(C)CC(OC)[C@@H](OC(=O)CCN)[C@H](C)/C=C(\C)C(OC(N)=O)C(OC)/C=C\C=C(/C)C(=O)NC(=CC1=O)C2=O (stereo partly drawn),inactive: 16.6 µM
5,COc1cc2c(cc1OC)C(=O)/C(=C/c1ccccc1)C2,inactive: > 90.8 µM
6,Cl/C(=N\c1cccc2ccccc12)N(c1ccccc1)c1ccccc1,inactive: > 100 µM
7,CC(=O)/C=C\C(=O)NNS(=O)(=O)c1ccc(C)cc1,inactive: > 100 µM
8,CCOC1=NC(C(F)(F)F)(C(F)(F)F)N=C(N2CCCCC2)O1,inactive: > 100 µM
9,COc1ccc(C2=Nn3c(nnc3-c3ccccc3)S/C2=C\c2ccc(-c3ccc([N+](=O)[O-])cc3)o2)cc1,inactive: 54.7 µM
10,COC(=O)c1c(C(=O)OC)c2c3ccccc3n(C)c2c2c1c1ccccc1n2C,inactive: > 100 µM
11,O=S(=O)(O)c1cc(O)c(/N=N\C2S(=O)(=O)OCCOS2(=O)=O)c2ccccc12,inactive: > 100 µM
12,CCCC(=O)OCC1OC(n2cc(F)c(=O)[nH]c2=O)C(F)C1O (stereo not drawn),inactive: 33.5 µM
13,C=C1CC2CC[C@@]34C[C@H]5O[C@@H]6C(O[C@H]7CC[C@H](CC(=O)OC8[C@H](C)C9OC%10C[C@]%11(C[C@@H]%12O[C@]%13(C[C@H](C)[C@@H]%14O[C@H]([C@H](O)C[C@H](O)CO)C[C@@H]%14O%13)C[C@H](C)[C@@H]%12O%11)OC%10CC9O[C@H]8C[C@H]8O[C@H](CC[C@@H]1O2)C[C@@H](C)C8=C)O[C@H]7[C@@H]6O3)[C@@H]5O4 (stereo partly drawn),active: 0.00155 µM
14,CN(CCCn1ccnc1[N+](=O)[O-])CCCn1ccnc1[N+](=O)[O-],inactive: > 100 µM
15,COc1ccc(CCc2cc(OC)cc(OC)c2)cc1,inactive: 69.2 µM
16,CCc1cccc(C(C)C)c1NC(=O)C(=O)C(Cc1nc2ccccc2nc1O)C(=O)OC (stereo not drawn),inactive: > 100 µM
17,Cc1cn(C2CC(N=[N+]=[N-])C(CO)O2)c(=O)n(CCCCBr)c1=O (stereo not drawn),inactive: > 100 µM
18,CC1=C(C)C(=O)C2=C(OCCO2)C1=O,inactive: 17.7 µM
19,Fc1cccc(C2SCc3nc4cc5ccccc5cc4n32)c1 (stereo not drawn),inactive: > 100 µM
20,Oc1ccc2ccccc2c1/N=N/c1ccc(/N=N/c2ccccc2)cc1,inactive: > 100 µM
21,COC(=O)C1Cc2ccc3c(c2C1=O)CCCC3 (stereo not drawn),inactive: > 100 µM
22,CN(C)c1ccc(C2SCC(=O)N2c2ccc(Oc3ccc(Cl)cc3)c(Cl)c2)cc1 (stereo not drawn),inactive: 25.5 µM

row,SMILES,GI50
1,CCN1CCC(O)(c2ccc(O)cc2)C(C(=O)c2ccc(O)cc2)C1 (stereo not drawn),inactive: > 100 µM
2,Cc1ccccc1/N=N/c1c(O)c(S(=O)(=O)O)cc2cc(S(=O)(=O)O)ccc12,inactive: > 100 µM
3,O=C1C=CC(=O)c2c1ccc1c3ccccc3n(Cc3cccc([N+](=O)[O-])c3)c21,inactive: > 100 µM
4,COc1cc2c(cc1OC)C(=O)N(c1ccc(OCCN3CCCC3)cc1)C2=O,inactive: > 100 µM
5,CCOC(=O)NC(C(C(=O)OCC)C(=O)OCC)(C(F)(F)F)C(F)(F)F,inactive: > 100 µM
6,CC(C)(C)n1c(=O)n2n(c1=O)C1c3cccc4cccc(c34)C2C2c3cccc4cccc(c34)C1n1c(=O)n(C(C)(C)C)c(=O)n12,inactive: > 100 µM
7,Brc1cc2nn(-c3ccccc3)nc2c2nonc12,inactive: > 100 µM
8,COc1ccc2c(c1)CC[C@@H]1C2CC[C@]2(C)C(=C=CP(=O)(O)O)CCC12 (stereo partly drawn),inactive: > 100 µM
9,COc1cc(C[S+]([O-])c2ccc(O)cc2)cc(OC)c1OC (stereo not drawn),inactive: > 100 µM
10,O=C(c1ccco1)N(C(=O)N1CCC(c2ccccc2)CC1)c1ccccc1,inactive: > 100 µM
11,c1ccc2c(-c3ccnc(-c4c[nH]c5ccccc45)n3)c[nH]c2c1,inactive: 10.7 µM
12,O=C(O)[C@H]1NC[C@H]2C(Br)=NO[C@@H]12,inactive: > 100 µM
13,CCN(CC)/C(Sc1ccccc1)=C(\C(Cl)=C(Cl)Cl)[N+](=O)[O-],inactive: 21.6 µM
14,COc1c(N2CCCCC2)c2c(=O)c3ccccc3oc2c2cc(C)oc12,inactive: 8.39 µM
15,CC(C)(C)c1cc(-c2cc(C(C)(C)C)[nH]n2)[nH]n1,inactive: > 100 µM
16,CC(C)(C)C(=O)OCC(COC(=O)C(C)(C)C)[N+](=O)[O-],inactive: > 100 µM
17,COCc1c(CO)cnc(C)c1OC1OC(CO)C(O)C(O)C1O (stereo not drawn),inactive: > 100 µM
18,COc1ccc(OC)c(NC(=O)C(=O)CC(=O)c2sc(-n3nc(-c4ccccc4)cc3-c3ccccc3)nc2C)c1,inactive: > 100 µM
19,C=CCC12CC(=O)CCC1CC(=O)C2 (stereo not drawn),inactive: > 100 µM
20,CCOC(=O)c1nnsc1NC(=O)Nc1ccc(Cc2ccc(NC(=O)Nc3snnc3C(=O)OCC)cc2)cc1,inactive: 64 µM
21,C(=N\c1ccc(-c2nc3ccccc3s2)cc1)/c1ccc[nH]1,inactive: 26.6 µM
22,Brc1nc2c3ccccc3ncn2c1Br,inactive: 54.8 µM

row,SMILES,GI50
1,CC(C)(O)/C=C/C(=O)[C@](C)(O)[C@H]1[C@H](O)C[C@@]2(C)[C@@H]3CC=C4[C@@H](C[C@H](O)C(=O)C4(C)C)[C@]3(C)C(=O)C[C@]12C [CUCURBITACIN D],inactive: 3.61 µM
2,O=CC1=CCCC2(C1)OCCO2,inactive: > 100 µM
3,CCOC(=O)/C=C(/C(=O)OCC)n1ccc(=O)n(Cc2cnnn2COCCOC(C)=O)c1=O,inactive: > 100 µM
4,Fc1ccc(F)c(/C=N/C23CC4CC(CC(C4)C2)C3)c1,inactive: > 10 µM
5,COc1cc(C)c(C2NC(=O)c3ccccc3N2)cc1C (stereo not drawn),inactive: 1.52 µM
6,Cc1cccc2c(N)c3cccc(C(=O)NCC[N+](C)(C)Cc4ccc(S(C)(=O)=O)cc4)c3nc12,inactive: 53.2 µM
7,CC(C)(C)OC(=O)n1c(-c2ccccc2F)cc(=O)c2cc3c(cc21)OCO3,active: 0.27 µM
8,CC(=O)OCC1OC(N2C(=O)C(=O)c3ccccc32)C(OC(C)=O)C(OC(C)=O)C1OC(C)=O (stereo not drawn),inactive: > 100 µM
9,CCN(CC)c1ccc(/N=C2\C=C(Cl)C(=O)c3ncccc32)c(C)c1,inactive: 20.1 µM
10,COc1cc(C(c2ccccc2)N2C(=O)CC[C@H]2C(=O)O)cc(OC)c1OC (stereo partly drawn),inactive: > 100 µM
11,CC1SCCc2nc3ccccc3n21 (stereo not drawn),inactive: > 100 µM
12,O=[N+]([O-])c1ccc(C2NC(=S)NC3c4cc([N+](=O)[O-])ccc4CCCC23)cc1 (stereo not drawn),inactive: > 100 µM
13,COc1cc(C=O)cc(/C=N/n2c3ccccc3c3ccccc32)c1O,inactive: 19.6 µM
14,C=C/C(C)=C\CC1[C@](C)(O)CC[C@H]2C(C)(C)C(=O)CC[C@]12C (stereo partly drawn),inactive: > 100 µM
15,CC[C@@H]([C@H](O)c1ccccc1Cl)[N+](=O)[O-],inactive: > 100 µM
16,CCOP1(=O)CC(C)=C(Cl)C(O)C1 (stereo not drawn),inactive: > 100 µM
17,COP(=O)(CC(=O)C1OC(C)(C)OC1C(O)COCc1ccccc1)OC (stereo not drawn),inactive: > 100 µM
18,COC(=O)/C=C(\S/C(=C(/c1ccccc1)n1cc(C(=O)OC)c(C(=O)OC)n1)c1ccccc1)C(=O)OC,inactive: 20.8 µM
19,C=CC(C1=CC(=O)C(OC)=CC1=O)c1ccccc1 (stereo not drawn) [4-METHOXYDALBERGIONE],inactive: 15.2 µM
20,O=c1c2ccccc2n2n1CC(O)C2 (stereo not drawn),inactive: > 100 µM
21,C[C@H]1SC(c2ccc(Cl)cc2Cl)N(NC(=O)c2ccncc2)C1=O (stereo partly drawn),inactive: > 10 µM
22,CCCc1c(O)nc2ccccc2c1O,inactive: > 100 µM

row,SMILES,GI50
1,O=C(O)C1CC=CCC1C(=O)Nc1cccc(O)c1 (stereo not drawn),inactive: > 100 µM
2,C[C@]12CC[C@@H]3c4cc(C=O)c(OCc5ccccc5)cc4CC[C@H]3[C@@H]1CCC2OCc1ccccc1 (stereo partly drawn),inactive: > 100 µM
3,COC(C)(C)[C@@H]1CCCN1C1=C(C)C(=O)OC1,inactive: > 100 µM
4,Cc1coc2c1CC1OC1(C)CCC1OC1(C)C2 (stereo not drawn),inactive: > 100 µM
5,COC1(C)OC[C@@]2(C)OC(C)C1(C)C2O[Si](C(C)C)(C(C)C)C(C)C (stereo partly drawn),inactive: 37.1 µM
6,c1ccc(CSc2nnc3c4ccccc4c4ccccc4c3n2)cc1,inactive: > 100 µM
7,Cc1nc(Cl)c(CBr)c(Cl)n1,inactive: 2 µM
8,CCOP(=O)(OCC)C(C)(CC)NC (stereo not drawn),inactive: > 100 µM
9,CCOCc1cc(=O)c2cc3c(cc2o1)OC(C)(C)CC3,inactive: > 100 µM
10,Cc1nn(C(=O)Cc2ccccc2)c2c1C(c1ccccc1O)SC(=N)N2 (stereo not drawn),inactive: > 100 µM
11,OC(c1ccccc1)(c1ccccc1)c1ccncc1,inactive: > 100 µM
12,N#C/C(=C1\OC(=N)C(c2ccc(Cl)cc2)=C1O)c1ccc(Cl)cc1,inactive: 21.2 µM
13,CC(=O)OCC1OC(OC2CC3C(C)(C)C(OC(C)=O)CC[C@]3(C)C3CCC45CC4(CC[C@H]5C(C)CC(O)[C@@H](O)C(C)(C)O)[C@]23C)C(O)C(O)C1O (stereo partly drawn),inactive: 7.74 µM
14,CC1=C(C)C(=O)O[C@@H]([C@](C)(O)[C@]2(O)CC[C@@]3(O)[C@@H]4C[C@H](O)[C@]5(O)[C@@H](O)C=CC(=O)[C@]5(C)[C@H]4CC[C@]23C)C1,inactive: > 100 µM
15,CN1CCc2c(sc3ncn(C)c(=N)c23)C1,inactive: > 100 µM
16,O=[N+]([O-])c1cccc([N+](=O)[O-])c1Cl,inactive: 20.4 µM
17,Cc1cc(C)nc(NS(=O)(=O)c2ccc(NC(=O)c3cccc4c(Nc5ccc(S(=O)(=O)N=C(N)N)cc5)c5ccc(Cl)cc5nc34)cc2)n1,inactive: 53.6 µM
18,O=C1OC(c2ccccc2)=N/C1=C/NC(Cc1ccccc1)C(=O)O (stereo not drawn),inactive: > 100 µM
19,C=C1C(=O)OC2C1CCC(C)C1C=CC(=O)C12C (stereo not drawn),inactive: 4.14 µM
20,O=C(O)CSc1nnc(-c2ccc(O)cc2)[nH]1,inactive: > 100 µM
21,CCOC(=O)C(=O)/C(=C/n1c(=S)[nH]c2ccc([N+](=O)[O-])cc21)C(=O)OCC,inactive: > 100 µM
22,CNC(=O)NS(=O)(=O)c1ccc(C)cc1.NS(=O)O,inactive: > 100 µM
